From the supplement of paper PMC10126150
Values marked as one replicate rest on one cluster of the flow cell; about a third of the high ones do not repeat.
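Also: ATP exposure 15 min at 22 °C before imaging.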

Each sequence was assayed on ATP (assay: switch fluorescence ratio, 500 uM ATP over buffer (Cy3 cluster intensity, sum of 5 cycles each) (fold (ratio)); higher = stronger signal-on switching upon ATP binding; sequences stand for … in TCGTCGGCAGCGTCAGATGTGTATAAGAGACAGTTTTTTTTTTTTTTTTTTTTTTTTT…TC). Conditions: aptamer strand: ATP DNA aptamer (quencher-CACCTGGGGGAGTATTGCGGAGGAAGG + anchor), 100 nM annealed; ATP concentration: 500 uM; one replicate.
How it was run: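 The fluorescence ratio divides summed target-cycle Cy3 intensity by summed buffer-cycle Cy3 intensity for each cluster and is averaged per switch-domain sequence. Cy3-labelled switching-strand clusters on a modified Illumina MiSeq flow-cell were annealed to 100 nM quencher-labelled ATP aptamer, then imaged in selection buffer and again after 15 min with 500 uM ATP at 22 °C. Five such cycles were run, with NaOH stripping and re-annealing between them, and clusters outside 100-1000 RFU were excluded.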
AGAGGATAGG showed a switch fluorescence ratio of 0.983. AGAGGCATTT gave a switch fluorescence ratio of 0.982. With AGAGGGCGTA the switch fluorescence ratio was 1.01. Sequence AGAGGGGCAC has a switch fluorescence ratio of 0.932. AGAGGGGCTT was tested, and the switch fluorescence ratio was 0.979. In the case of AGAGGTTGAT, the switch fluorescence ratio is reported as 0.969. AGAGTACGCA showed a switch fluorescence ratio of 1.26. Sequence AGAGTAGCGC has a switch fluorescence ratio of 1.14. Work on AGAGTCCAGT yielded a switch fluorescence ratio of 0.992. AGAGTCGACT was tested, and the switch fluorescence ratio was 0.945. AGAGTTACTC showed a switch fluorescence ratio of 1.04. Sequence AGAGTTCATG has a switch fluorescence ratio of 0.997. AGAGTTCGCT showed a switch fluorescence ratio of 0.973. AGATAAGGG gave a switch fluorescence ratio of 1.03. AGATACCGCC gave a switch fluorescence ratio of 1.22. Sequence AGATACGTGC has a switch fluorescence ratio of 1.05. AGATAGAAAT showed a switch fluorescence ratio of 1.01. AGATAGAGAA showed a switch fluorescence ratio of 0.992. Sequence AGATAGTTAG has a switch fluorescence ratio of 1.02. In the case of AGATATATTC, the switch fluorescence ratio is reported as 0.962. AGATATTCTA was tested, and the switch fluorescence ratio was 1.01. Sequence AGATATTGCG has a switch fluorescence ratio of 0.989. Sequence AGATCAGAGC has a switch fluorescence ratio of 1.03. With AGATCAGCAG the switch fluorescence ratio was 1.04. AGATCGTACG showed a switch fluorescence ratio of 0.958. Sequence AGATCTAGCG has a switch fluorescence ratio of 1.02. Work on AGATCTG yielded a switch fluorescence ratio of 1.07. AGATGAAAGT gave a switch fluorescence ratio of 0.977. For AGATGACTCG, the switch fluorescence ratio was 0.967. AGATGAGACG gave a switch fluorescence ratio of 1. For AGATGCAATT, the switch fluorescence ratio was 1.07. For AGATGCATT, the switch fluorescence ratio was 0.966. AGATGGGAAA showed a switch fluorescence ratio of 0.96. For AGATGGGTCG, the switch fluorescence ratio was 0.992. In the case of AGATGGGTTC, the switch fluorescence ratio is reported as 0.988. In the case of AGATGTAGCC, the switch fluorescence ratio is reported as 0.982. With AGATGTCCCC the switch fluorescence ratio was 1.09. AGATGTGCGT gave a switch fluorescence ratio of 0.973. Sequence AGATTACCGT has a switch fluorescence ratio of 1. Work on AGATTAGTAG yielded a switch fluorescence ratio of 1.02. With AGATTATGAT the switch fluorescence ratio was 0.99. In the case of AGATTATTCG, the switch fluorescence ratio is reported as 0.971. With AGATTATTCT the switch fluorescence ratio was 0.946. For AGATTCAATG, the switch fluorescence ratio was 0.982. Sequence AGATTCGGTT has a switch fluorescence ratio of 1.01. With AGATTCTAAA the switch fluorescence ratio was 1. AGATTCTAGT showed a switch fluorescence ratio of 1. AGATTGCGCT showed a switch fluorescence ratio of 1.05. AGATTTAGTT showed a switch fluorescence ratio of 1. Sequence AGATTTCCTT has a switch fluorescence ratio of 1.02. With AGCAACACCG the switch fluorescence ratio was 1.02. AGCAACATCT showed a switch fluorescence ratio of 1.14. Work on AGCAACATGT yielded a switch fluorescence ratio of 0.995. Sequence AGCAACTAGT has a switch fluorescence ratio of 1.02. AGCAAGAGGT was tested, and the switch fluorescence ratio was 1.05. For AGCAAGCTGA, the switch fluorescence ratio was 1.1. Sequence AGCAATTCCA has a switch fluorescence ratio of 1.77. For AGCACAATAT, the switch fluorescence ratio was 1.26. Sequence AGCACCAGGT has a switch fluorescence ratio of 1.85. AGCACCGTCC was tested, and the switch fluorescence ratio was 1.59. Work on AGCACTAACG yielded a switch fluorescence ratio of 1.54. AGCACTAAGA gave a switch fluorescence ratio of 1.02. In the case of AGCAGCAGCT, the switch fluorescence ratio is reported as 1.03. AGCAGCTTTA gave a switch fluorescence ratio of 0.989. AGCAGGACCT showed a switch fluorescence ratio of 1.05. AGCAGGCTGA showed a switch fluorescence ratio of 1.03. In the case of AGCAGGGATC, the switch fluorescence ratio is reported as 1.04. With AGCAGTCTGG the switch fluorescence ratio was 0.957. Work on AGCAGTGTT yielded a switch fluorescence ratio of 0.978. AGCAGTTAT was tested, and the switch fluorescence ratio was 1.02. AGCATATCTA showed a switch fluorescence ratio of 1. AGCATCGCCG showed a switch fluorescence ratio of 0.963. Work on AGCATCTCAT yielded a switch fluorescence ratio of 0.997. AGCATGGCCG was tested, and the switch fluorescence ratio was 1.06. Work on AGCATTAACA yielded a switch fluorescence ratio of 0.994. For AGCCAAATGC, the switch fluorescence ratio was 1.15. With AGCCAACAGG the switch fluorescence ratio was 1.12. For AGCCAAGGCT, the switch fluorescence ratio was 0.996. In the case of AGCCACCGTT, the switch fluorescence ratio is reported as 1.05. Sequence AGCCAGCAGT has a switch fluorescence ratio of 1.1. In the case of AGCCAGGTCT, the switch fluorescence ratio is reported as 0.897. In the case of AGCCATGTGC, the switch fluorescence ratio is reported as 0.993. Sequence AGCCCCATTA has a switch fluorescence ratio of 1.03. With AGCCCCCGGC the switch fluorescence ratio was 0.99. Sequence AGCCCCTCTA has a switch fluorescence ratio of 1.06.
